The results in this text go back to the supplement of paper PMC3334620.

In all, about 33,000 sequences were measured (“E-score (-0.5 to 0.5)”: median about -0.035, highest 2% from about 0.34 on). This is one part of the list.

The target in the assay is T1, Mot3 (UniProt P54785).
T1 sequence: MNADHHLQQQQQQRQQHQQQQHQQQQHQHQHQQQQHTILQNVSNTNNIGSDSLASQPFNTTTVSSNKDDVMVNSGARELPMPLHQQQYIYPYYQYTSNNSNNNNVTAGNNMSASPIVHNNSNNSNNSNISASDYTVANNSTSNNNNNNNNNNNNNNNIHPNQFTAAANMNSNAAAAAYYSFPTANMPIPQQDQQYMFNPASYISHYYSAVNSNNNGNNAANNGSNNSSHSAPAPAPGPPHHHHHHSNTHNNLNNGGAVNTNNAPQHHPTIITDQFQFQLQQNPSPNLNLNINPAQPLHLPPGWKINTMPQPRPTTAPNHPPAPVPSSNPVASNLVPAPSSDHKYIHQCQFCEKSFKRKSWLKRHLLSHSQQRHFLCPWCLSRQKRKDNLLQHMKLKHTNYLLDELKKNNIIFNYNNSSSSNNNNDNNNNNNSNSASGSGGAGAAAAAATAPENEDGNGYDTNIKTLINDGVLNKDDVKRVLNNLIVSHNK
Description: PBM E-score (8-mer binding enrichment) (E-score (-0.5 to 0.5)); higher = stronger / more preferred TF binding; most listed sequences are background and not binding sites. As to conditions: protein concentration: 200 nM; construct: GST-full length. An outline of the steps:
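Masliner-normalised scans of fluorescent anti-GST signal were the basis for scoring. That signal came from GST-tagged yeast transcription factors applied at about 100-200 nM to double-stranded universal all-10-mer Agilent arrays on fresh or once-stripped slides. Each ungapped eight-base word, pooled with its reverse complement, received an E-score from the Universal PBM Analysis Suite.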
As for ATCCGATC, the “PBM E-score” value was 0.00223. To GCTTATCA belongs -0.158; to AATAACGC, 0.217. With CTAAAAGA the figure was -0.11; with CCTAAGTA, 0.164. With AACGGCCT the figure was -0.267; with CCGGTGTA, 0.0449.

On to AGTTAGAA, for which the “PBM E-score” value was -0.0798.

Turning to GGTGAACC, the “PBM E-score” value is -0.167. To CTCGTGGC belongs -0.134. With CCCCGATA the figure was -0.0851; with AGTCTATC, 0.00491; with CCCTTAAG, 0.194. As for AGTGGCTG, the “PBM E-score” value was -0.289. With AGGCCTGA the figure was -0.288.

For the sequence CACACTTA, the “PBM E-score” value is 0.0972. With GCAACGTA the figure was 0.113. As for GAGGAGTA, the “PBM E-score” value was -0.0693.

Consider AGCACTAT, for which the “PBM E-score” value came out at 0.103. To CGATCCAA belongs -0.1; to ATCGAATG, -0.0374. On to CTATGTAA, for which the “PBM E-score” value was determined as 0.41.

As for GGATCATA, the “PBM E-score” value was -0.23. With TAGGTGGA the figure was 0.094; with CCATATAG, -0.187. Regarding AACTAGTT, the “PBM E-score” value is 0.0146. To GTTCTCCA belongs -0.106; to CGACCAAA, 0.104. CGTATGGA: the “PBM E-score” value is -0.165. To AAATATAC belongs 0.0863; to CCAACTGG, -0.281. Regarding ATTAACTA, the “PBM E-score” value came out at 0.064. With ATACCGAC the figure was -0.0192; with ACTCGTAC, -0.063. To GGCTAACA belongs 0.151. Consider GCTGAGTA, for which the “PBM E-score” value is -0.066.

ATTAATGG: the “PBM E-score” value worked out at 0.103. In the case of ATATACCA, the “PBM E-score” value is -0.0571. To GTCAATCA belongs 0.0897; to AAATGTCT, -0.00895; to AATGAGCC, -0.238. With ATCTTCCC the figure was -0.167. On to CCAAGATC, for which the “PBM E-score” value was -0.275. To AACCGATG belongs 0.0735.

In the case of GCCCGACA, the “PBM E-score” value was -0.00853. With CGCGTCCG the figure was 0.0176; with ACGATGAC, -0.0119; with GGAGTGCC, 0.0916. To AGAGAGGG belongs -0.182; to CATGCAGC, -0.16; to AGAAGCTC, -0.183. To CATAAGAG belongs -0.0387; to AACGGTGG, -0.099. As for ATGCCTCG, the “PBM E-score” value came out at 0.0595. With ACCGGGCA the figure was -0.256. With AAAGCTGC the figure was -0.2; with CGCTCCAA, -0.209. To GATGATTA belongs -0.0362; to ACGTTTCC, 0.11; to CGTCCGCA, -0.186. Take TCGAGGAA: the “PBM E-score” value turned out to be 0.0247.

CCCCGAGA: the “PBM E-score” value is -0.176. GCCTACAA: the “PBM E-score” value was 0.199.

With AACACTTG, the “PBM E-score” value came out at 0.0527.

For the sequence CGGAGTTA, the “PBM E-score” value is -0.0135. On to GTTCTAAA, for which the “PBM E-score” value came to 0.0659.

Consider ACTGCACG, for which the “PBM E-score” value was -0.0625. To CGCTCGTC belongs -0.217; to TCTCCTAA, 0.0995. Turning to AAGCCTCA, the “PBM E-score” value was -0.19.

AACAGCGC: the “PBM E-score” value was 0.0828. With GGTTCCAA the figure was -0.208; with ACAACTAG, -0.0235; with GGGCTAGA, -0.251.

Take AATGCTAT: the “PBM E-score” value was found to be 0.0181. With AAACCGTC the figure was -0.0525; with TACTTCGA, -0.00982; with ACGTAAAC, 0.251. To AGGCATGA belongs 0.153. With TCGAAAAA the figure was 0.181; with ACTCCTCC, -0.234.

For GACCCCGA, the “PBM E-score” value was -0.118.

Consider GGGTGGAC, for which the “PBM E-score” value was -0.236. To CGATTTGA belongs 0.0574; to AGCTGCAA, -0.317. To ACCGACTA belongs -0.213.
